The other results are listed elsewhere or left out.
Tests used:
Experiment in all cases: glycan array binding signal (z-score within array); higher = stronger binding
Settings in all cases: glycan notation: IUPAC condensed, linker removed
Neu5Ac(a2-8)Neu5Ac = target: Neu5Ac(a2-8)Neu5Ac
Procedure, shortened: (§1)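 Arrays were curated from the Consortium for Functional Glycomics database, 3228 in total, and kept only where the protein sequence was available. Binding is expressed as a within-array Z-score. This score was averaged across arrays of the same protein sequence at different concentrations or buffers and across linkers, and negative values can be read as non-binding.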

[1] = target: Neu5Ac(a2-8)Neu5Ac(a2-3)Gal(b1-3)GalNAc(b1-4)[Neu5Ac(a2-3)]Gal(b1-4)Glc
Procedure, shortened: as §1

[2] = target: Neu5Ac(a2-8)Neu5Ac(a2-3)Gal(b1-3)GalNAc(b1-4)[Neu5Ac(a2-8)Neu5Ac(a2-3)]Gal(b1-4)Glc
Procedure, shortened: as §1

[3] = target: Neu5Ac(a2-8)Neu5Ac(a2-3)Gal(b1-4)Glc
Procedure, shortened: as §1

[4] = target: Neu5Ac(a2-8)Neu5Ac(a2-3)Gal(b1-4)GlcNAc
Procedure, shortened: as §1

[5] = target: Neu5Ac(a2-8)Neu5Ac(a2-3)[Gal(b1-3)GalNAc(b1-4)]Gal(b1-4)Glc
Procedure, shortened: as §1

[6] = target: Neu5Ac(a2-8)Neu5Ac(a2-3)[GalNAc(b1-4)]Gal(b1-4)Glc
Procedure, shortened: as §1

[7] = target: Neu5Ac(a2-8)Neu5Ac(a2-8)Neu5Ac
Procedure, shortened: as §1

[8] = target: Neu5Ac(a2-8)Neu5Ac(a2-8)Neu5Ac(a2-3)Gal(b1-4)Glc
Procedure, shortened: as §1

[9] = target: Neu5Ac(a2-8)Neu5Ac(a2-8)Neu5Ac(a2-3)[Gal(b1-3)GalNAc(b1-4)]Gal(b1-4)Glc
Procedure, shortened: as §1

[10] = target: Neu5Ac(a2-8)Neu5Ac(a2-8)Neu5Ac(a2-3)[GalNAc(b1-4)]Gal(b1-4)Glc
Procedure, shortened: as §1

[11] = target: Neu5Ac(a2-8)Neu5Ac(a2-8)Neu5Ac(a2-8)Neu5Ac(a2-3)[GalNAc(b1-4)]Gal(b1-4)Glc
Procedure, shortened: as §1

[12] = target: Neu5Ac(a2-8)Neu5Gc(a2-3)Gal(b1-4)GlcNAc
Procedure, shortened: as §1

[13] = target: Neu5Ac(b2-6)Gal(b1-4)GlcNAc
Procedure, shortened: as §1

Neu5Ac(b2-6)GalNAc = target: Neu5Ac(b2-6)GalNAc
Procedure, shortened: as §1

[14] = target: Neu5Ac9Ac(a2-3)Gal(b1-3)GlcNAc
Procedure, shortened: as §1

[15] = target: Neu5Ac9Ac(a2-3)Gal(b1-4)GlcNAc
Procedure, shortened: as §1

[16] = target: Neu5Ac9Ac(a2-6)Gal(b1-4)GlcNAc
Procedure, shortened: as §1

[17] = target: Neu5Gc(a2-3)Gal(b1-3)GlcNAc
Procedure, shortened: as §1

[18] = target: Neu5Gc(a2-3)Gal(b1-3)[Fuc(a1-4)]GlcNAc
Procedure, shortened: as §1

Neu5Gc(a2-3)Gal(b1-4)Glc = target: Neu5Gc(a2-3)Gal(b1-4)Glc
Procedure, shortened: as §1

[19] = target: Neu5Gc(a2-3)Gal(b1-4)GlcNAc
Procedure, shortened: as §1

[20] = target: Neu5Gc(a2-3)Gal(b1-4)GlcNAc(b1-3)Gal(b1-4)GlcNAc(b1-2)Man(a1-3)[Neu5Gc(a2-3)Gal(b1-4)GlcNAc(b1-3)Gal(b1-4)GlcNAc(b1-2)Man(a1-6)]Man(b1-4)GlcNAc(b1-4)GlcNAc
Procedure, shortened: as §1

[21] = target: Neu5Gc(a2-3)Gal(b1-4)[Fuc(a1-3)]GlcNAc
Procedure, shortened: as §1

[22] = target: Neu5Gc(a2-6)Gal(b1-4)GlcNAc
Procedure, shortened: as §1

Neu5Gc(a2-6)GalNAc = target: Neu5Gc(a2-6)GalNAc
Procedure, shortened: as §1

[23] = target: Neu5Gc(a2-8)Neu5Ac(a2-3)Gal(b1-4)GlcNAc
Procedure, shortened: as §1

[24] = target: Neu5Gc(a2-8)Neu5Gc(a2-3)Gal(b1-4)GlcNAc
Procedure, shortened: as §1

[25] = target: Neu5Gc(a2-8)Neu5Gc(a2-3)Gal(b1-4)GlcNAc(b1-3)Gal(b1-4)GlcNAc
Procedure, shortened: as §1

[26] = target: Neu5Gc(a2-8)Neu5Gc(a2-6)Gal(b1-4)GlcNAc
Procedure, shortened: as §1

[27] = target: Neu5Gc(b2-6)Gal(b1-4)GlcNAc
Procedure, shortened: as §1

B1: PX9961H-bth-557-24-557 (Bacteroides thetaiotaomicron) (protein)
chain: EETRTEVEKKNYMNNAEEAKDVLLGVYRTNTLDAMYGYYLSILFNLGTDISQVEGSGNENFRIIPTNSFPTTQSEVQQTWAALYTGIYRANDFLERISNKIGSYTTTDKKLATLYIAEARALRGMFYFELVRRFGNVVLMTSTQMSNQNPATYVQSAPEKVYEYIEDDLLYACDILPYATDDQYRESNDYRFSKGAALGLLTKVYATWAGYPVKDESKWEAAAKTARILVESGKHGLLKDYEQLWKNTCNGTWDPTESLIEISFYSPTVSGNSDPVGRIGKWNGVKTTAIAGVRGSCAANVKVVHTFVLDWREDVSDIRRDLSIANYQYTDTKKSLWVAGASDTDESAAEKDADPTKAQKNKQNYTPAKWDIQKYVTTNSFINNDKSNVNWYFLRYADVLLLYAEALNEWKHGPDAEAYNAINAVRRRGYGNPSNTSACDLPQGLDETSFREAVRKERSYELSFEGHRRQDLIRWGIYYKTVQATAKELGYWWEGTGSPNYSVATYTEEGKHELFPIPQRDMDLCIQFNQNPKW
glycan array binding signal (z-score) (Neu5Ac(a2-8)Neu5Ac): -0.128
glycan array binding signal (z-score) [1]: -0.541
glycan array binding signal (z-score) [2]: 0.552
glycan array binding signal (z-score) [3]: -0.423
glycan array binding signal (z-score) [4]: -0.532
glycan array binding signal (z-score) [5]: -0.464
glycan array binding signal (z-score) [6]: 1.01
glycan array binding signal (z-score) [7]: -0.164
glycan array binding signal (z-score) [8]: -0.336
glycan array binding signal (z-score) [9]: 0.142
glycan array binding signal (z-score) [10]: -0.22
glycan array binding signal (z-score) [11]: -0.267
glycan array binding signal (z-score) [12]: 7.98
glycan array binding signal (z-score) [13]: 0.015
glycan array binding signal (z-score) (Neu5Ac(b2-6)GalNAc): -0.434
glycan array binding signal (z-score) [14]: -0.391
glycan array binding signal (z-score) [15]: -0.592
glycan array binding signal (z-score) [16]: -0.047
glycan array binding signal (z-score) [17]: -0.511
glycan array binding signal (z-score) [18]: -0.41
glycan array binding signal (z-score) (Neu5Gc(a2-3)Gal(b1-4)Glc): -0.062
glycan array binding signal (z-score) [19]: -0.227
glycan array binding signal (z-score) [20]: -0.077
glycan array binding signal (z-score) [21]: -0.313
glycan array binding signal (z-score) [22]: -0.44
glycan array binding signal (z-score) (Neu5Gc(a2-6)GalNAc): 0.153
glycan array binding signal (z-score) [23]: -0.334
glycan array binding signal (z-score) [24]: -0.494
glycan array binding signal (z-score) [25]: -0.519
glycan array binding signal (z-score) [26]: -0.327
glycan array binding signal (z-score) [27]: -0.202

Source: the supplement of paper PMC8728848
